Source: paper PMC11995724, “Antibiotic target discovery by integrated phenotypic and activity-based profiling of electrophilic fragments” (Cell chemical biology, 2025)
Out of some 3,200 compounds screened, about 75 (2%) showed an effect of 50% or more. This is one part of the list.

Test system: T1, S. aureus MSSA476
T1 construct: MSSA476
Set-up: species or system S. aureus MSSA476 (TSB) or V. cholerae SAD30 (LB); 384-well bacterial growth screen at 25 uM, OD600 relative to DMSO control
Conditions: relative growth, OD600, TSB; 25 µM; inhibitor

| SMILES | % of control remaining |
| --- | --- |
| Cc1ccc(C2OCCCC2CNC(=O)C(C)Cl)cc1 (stereo not drawn) [7-B09, 2-chloro-N-{[2-(4-methylphenyl)oxan-3-yl]methyl}propanamide] | 87.2841% |
| O=C(CCl)N(Cc1ccoc1)C1CCCCC1 [5-B15, 2-chloro-N-cyclohexyl-N-[(furan-3-yl)methyl]acetamide] | 80.1457% |
| Cl.O=C(CCl)NC1CCN(Cc2cscn2)CC1 [7-H04, 2-chloro-N-{1-[(1,3-thiazol-4-yl)methyl]piperidin-4-yl}acetamide hydrochloride] | 88.2261% |
| N#CC(=Cc1cccc(Cl)c1Cl)C(=O)Nc1ccc(F)cc1 [8-P22, 2-cyano-3-(2,3-dichlorophenyl)-N-(4-fluorophenyl)prop-2-enamide] | 70.7054% |
| CC(Cl)C(=O)NCc1csc2ccccc12 (stereo not drawn) [7-C11, N-[(1-benzothiophen-3-yl)methyl]-2-chloropropanamide] | 75.0392% |
| CC1CSc2ccccc2N(C(=O)CCl)C1 (stereo not drawn) [5-H07, 2-chloro-1-(3-methyl-2,3,4,5-tetrahydro-1,5-benzothiazepin-5-yl)ethan-1-one] | 104.554% |
| CC(Cl)C(=O)NC1CCCn2nccc21 (stereo not drawn) [6-J16, 2-chloro-N-{4H,5H,6H,7H-pyrazolo[1,5-a]pyridin-4-yl}propanamide] | 93.561% |
| C=CCNC(=O)C(C#N)=Cc1ccc(C(=O)O)cc1 [8-J04, 4-{2-cyano-2-[(prop-2-en-1-yl)carbamoyl]eth-1-en-1-yl}benzoic acid] | 118.174% |
| C=CC(=O)N(C)Cc1nc2c(n1C)CCCC2 [2-K22, N-methyl-N-[(1-methyl-4,5,6,7-tetrahydro-1H-1,3-benzodiazol-2-yl)methyl]prop-2-enamide] | 103.394% |
| CC(Cl)C(=O)N1CCNC(=O)C1c1c(F)cccc1Cl (stereo not drawn) [6-D07, 3-(2-chloro-6-fluorophenyl)-4-(2-chloropropanoyl)piperazin-2-one] | 71.0244% |
| C=CC(=O)Nc1ccnn1C1CCCC1 [2-K13, N-(1-cyclopentyl-1H-pyrazol-5-yl)prop-2-enamide] | 103.394% |
| CC(=O)N(C)Cc1ccc(C(=O)CCl)cc1 [10-H04, N-{[4-(2-chloroacetyl)phenyl]methyl}-N-methylacetamide] | 111.875% |
| C=CC(=O)Nc1ccc(-c2nnnn2C)cc1 [2-F18, N-[4-(1-methyl-1H-1,2,3,4-tetrazol-5-yl)phenyl]prop-2-enamide] | 115.927% |
| C=CC(=O)N[C@H]1CCO[C@@H]1c1ccnn1C(C)C (racemic) [3-K05, rac-N-[(2R,3R)-2-[1-(propan-2-yl)-1H-pyrazol-5-yl]oxolan-3-yl]prop-2-enamide] | 84.9804% |
| CC(Cl)C(=O)NC1CC(C)N(c2ccccc2)C1 (stereo not drawn) [6-L15, 2-chloro-N-(5-methyl-1-phenylpyrrolidin-3-yl)propanamide] | 113.707% |
| O=C(CCl)N1CCOCC1c1noc(-c2ccccc2)n1 (stereo not drawn) [5-E10, 2-chloro-1-[3-(5-phenyl-1,2,4-oxadiazol-3-yl)morpholin-4-yl]ethan-1-one] | 111.111% |
| CC1CCN(Cc2csc(NC(=O)CCl)n2)CC1.Cl [6-E17, 2-chloro-N-{4-[(4-methylpiperidin-1-yl)methyl]-1,3-thiazol-2-yl}acetamide hydrochloride] | 110.293% |
| C=CC(=O)NCC(C)(C)Cn1cccn1 [1-J04, N-[2,2-dimethyl-3-(1H-pyrazol-1-yl)propyl]prop-2-enamide] | 107.956% |
| Cn1c(CNC=C(C#N)C(=O)Nc2ccccc2)cc(=O)n(C)c1=O [9-G21, 2-cyano-3-{[(1,3-dimethyl-2,6-dioxo-1,2,3,6-tetrahydropyrimidin-4-yl)methyl]amino}-N-phenylprop-2-enamide] | 102.172% |
| C=CC(=O)NC12CC3(C)CC(C)(CC(O)(C3)C1)C2 [1-K17, N-(3-hydroxy-5,7-dimethyladamantan-1-yl)prop-2-enamide] | 111.473% |
| CC(Cl)C(=O)NCCn1cccc1 (stereo not drawn) [7-G21, 2-chloro-N-[2-(1H-pyrrol-1-yl)ethyl]propanamide] | 86.3422% |
| C=CC(=O)NCc1ccc(-c2noc(C)n2)cc1 [3-P22, N-{[4-(5-methyl-1,2,4-oxadiazol-3-yl)phenyl]methyl}prop-2-enamide] | 113.191% |
| C=CC(=O)N1CCCn2nc(CO)cc2C1 [3-M10, 1-[2-(hydroxymethyl)-4H,5H,6H,7H,8H-pyrazolo[1,5-a][1,4]diazepin-5-yl]prop-2-en-1-one] | 111.101% |

| SMILES | % of control remaining |
| --- | --- |
| CSc1ccc(C=C(C#N)C(=O)N2CCCC2)cc1 [8-I11, 3-[4-(methylsulfanyl)phenyl]-2-(pyrrolidine-1-carbonyl)prop-2-enenitrile] | 119.17% |
| Cc1noc(C)c1COC1CCN(C(=O)C(C)Cl)C1 (stereo not drawn) [7-O14, 2-chloro-1-{3-[(3,5-dimethyl-1,2-oxazol-4-yl)methoxy]pyrrolidin-1-yl}propan-1-one] | 124.019% |
| Cl.O=C(CCl)N1CCN(CC=Cc2ccccc2)CC1 [4-F16, 2-chloro-1-[4-(3-phenylprop-2-en-1-yl)piperazin-1-yl]ethan-1-one hydrochloride] | 103.668% |
| N#CC(=Cc1ccco1)C(=O)Nc1cccc(Cn2cccn2)c1 [8-I20, 2-cyano-3-(furan-2-yl)-N-{3-[(1H-pyrazol-1-yl)methyl]phenyl}prop-2-enamide] | 69.7095% |
| O=C(CCl)N1CCCCC1c1nc(-c2ccccn2)cs1 (stereo not drawn) [5-G18, 2-chloro-1-{2-[4-(pyridin-2-yl)-1,3-thiazol-2-yl]piperidin-1-yl}ethan-1-one] | 94.7177% |
| CSc1ccccc1NC(=O)C(C)Cl (stereo not drawn) [4-M12, 2-chloro-N-[2-(methylsulfanyl)phenyl]propanamide] | 99.0948% |
| O=C(CCl)N1C2CCC1c1ccccc12 [5-M11, 1-{11-azatricyclo[6.2.1.0,2,7]undeca-2,4,6-trien-11-yl}-2-chloroethan-1-one] | 83.4244% |
| O=C(CCl)Nc1ccccc1C(=O)Nc1ccc(F)cc1 [6-D12, 2-(2-chloroacetamido)-N-(4-fluorophenyl)benzamide] | 76.1463% |
| C=CC(=O)N1CCC(C(=O)NC2CCOC3(CCSCC3)C2)CC1 (stereo not drawn) [2-B12, N-{1-oxa-9-thiaspiro[5.5]undecan-4-yl}-1-(prop-2-enoyl)piperidine-4-carboxamide] | 114.883% |
| CCCc1cc(NC(=O)CCl)n(-c2ccccc2)n1 [4-M03, 2-chloro-N-(1-phenyl-3-propyl-1H-pyrazol-5-yl)acetamide] | 94.5212% |
| Cc1ccc2[nH]c3c(c2c1)CCCC3N(C)C(=O)CCl (stereo not drawn) [6-H07, 2-chloro-N-methyl-N-(6-methyl-2,3,4,9-tetrahydro-1H-carbazol-1-yl)acetamide] | 85.3659% |
| COc1ccc(C=C(C#N)C(=O)Nc2ccccc2Cl)cc1O [8-C21, N-(2-chlorophenyl)-2-cyano-3-(3-hydroxy-4-methoxyphenyl)prop-2-enamide] | 81.3278% |
| Cc1ccc2nc(-c3ccc(NC(=O)CCl)cc3)sc2c1 [6-I05, 2-chloro-N-[4-(6-methyl-1,3-benzothiazol-2-yl)phenyl]acetamide] | 90.1463% |
| C=CC(=O)N1CCCC(Cc2noc(C)n2)C1 (stereo not drawn) [1-L20, 1-{3-[(5-methyl-1,2,4-oxadiazol-3-yl)methyl]piperidin-1-yl}prop-2-en-1-one] | 120.264% |
| COc1ccc(Cl)cc1CNC(=O)CCl [6-A16, 2-chloro-N-[(5-chloro-2-methoxyphenyl)methyl]acetamide] | 87.4146% |
| N#CC(=Cc1cccc([N+](=O)[O-])c1)C(=O)NCc1ccc(Cl)cc1 [8-F16, N-[(4-chlorophenyl)methyl]-2-cyano-3-(3-nitrophenyl)prop-2-enamide] | 85.6432% |
| N#CC(=Cc1sc2ccccc2c1Cl)C(=O)Nc1nccs1 [9-F15, 3-(3-chloro-1-benzothiophen-2-yl)-2-cyano-N-(1,3-thiazol-2-yl)prop-2-enamide] | 101.573% |
| CC(Cl)C(=O)NCc1ccc(F)cc1 (stereo not drawn) [5-A19, 2-chloro-N-[(4-fluorophenyl)methyl]propanamide] | 99.4536% |
| C=CC(=O)Nc1nc2c(s1)-c1cc(OC)ccc1CC2 [1-J21, N-{8-methoxy-4H,5H-naphtho[2,1-d][1,3]thiazol-2-yl}prop-2-enamide] | 115.692% |
| Cc1ccc2nc(-c3ccc(N4C(=O)C=CC4=O)cc3)sc2c1 [10-K18, 1-[4-(6-methyl-1,3-benzothiazol-2-yl)phenyl]-2,5-dihydro-1H-pyrrole-2,5-dione] | 130% |
| Cc1nn(C)c(NC(=O)C(C)Cl)c1-c1ccccc1 (stereo not drawn) [7-F21, 2-chloro-N-(1,3-dimethyl-4-phenyl-1H-pyrazol-5-yl)propanamide] | 108.006% |
| C=CC(=O)NC(C)(C)c1nc(-c2ccccc2F)c(C)s1 [1-H04, N-{2-[4-(2-fluorophenyl)-5-methyl-1,3-thiazol-2-yl]propan-2-yl}prop-2-enamide] | 100.571% |
